Experimental data reported in the RNAGym collection of RNA variant scans (doi:10.1073/pnas.2313332121).
Variants at the floor of the assay are shown more often than the library holds them.

B1: TPR 5TU (parent)
chain: GGAUCUUCUCGAUCUAACAAAAAAGACAAAUCUGCCACAAAGCUUGAGAGCAUCUUCGGAUGCAGAGGCGGCAGCCUUCGGUGGCGCGAUAGCGCCAACGUUCUCAACUAUGACACGCAAAACGCGUGCUCCGUUGAAUGGAGUUUAUCAUG

Variants of: B1
Assay: polymerase ribozyme fitness, log enrichment relative to wild type (log ratio); higher = more active; in vitro selection for triplet polymerase activity
How it was run: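 A single round of triplicate in vitro selection, including frozen incubation at −7 °C, was applied to PCR-built, transcribed mutant libraries of each subunit of a heterodimeric triplet polymerase ribozyme. Illumina sequencing of input and output libraries retained genotypes with ≥10 input reads and ≥1 read per output. Fitness is the base-2 logarithm of genotype enrichment divided by wild-type enrichment, from inverse-variance-weighted replicate averages.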

Polymerase ribozyme fitness (log ratio), -4.12:
A12G A16C A119U A121G U135C U146A A150G

Polymerase ribozyme fitness (log ratio), -0.73:
A12C G92C

Polymerase ribozyme fitness (log ratio), -4.11:
G11C A91U

Polymerase ribozyme fitness (log ratio), ≤ -4.2:
G11U U56C U78G C85U A89G
A12G A19C A23U C54U G84C A97C A115C G124U U145C
A12G A20G A23U A89G C96U U111C G124C U130G G133C G140A
G11C U13G A21U A30C G58C C85G
A12C A20C G74C U82G C95G U111C
G11C A28C A40U A138U G152A
A12G A41C U44A A47C C85U A138C A142U U146A
A12G A21U C32U A49C A97C A98G A121G
A12G A21U C27A G48C A49C C51A G84A C129A
G11U C54U C72A U90G G92U U111G U148G
G11C C14G U44A G80A C85U A91G
G11U A17G A39U A40C G68A G92A A106G A115U G143U
G11U G50C A52C C72G C76G G81C G94C
A12C A30C U31A A39U C87A
A12C C57G A107C U134G
A12G C14A A30C A39U A73U U77A C85A C125G
G11C A12G U82G G84A C131A
G11C C27G U55A U61A U82G C93U
A12C C27U C35U A52C C75A A115C
A12C A22G C36U C38U G58U U109G
A12C A20G G25A A30G U44A A89G U145G
A12C C54U U77G C118G
G11U A30U G65U G70C C85G A91U C93A A150U
G11C A17G G25U U31G C87U
A12G A47C A73U G88A C125U G133U
A12G A40G U44A U45A C93G A120U G141U
A12C A22C G50C G92C C125U
A12G A21G G86U A91U U101A A106G A122G
G11C C32G G34C G88C A106G C108A A110U C149G
A12G A52G A91C C95G C118G
G11U A16C A24G G58C C87A C99U
A12G A66C G84C G88A A120C
A12C C36U G94A G117A C129A C149A
G11C C14G C93U C125A
A12C U53C G74A C76G C96U A110U
A12C A23U A39C A41C C87A G100C G117A
G11C A52C A98U U139G G140C
G11U G42A G50A C54A C95U G124A
G11C C36U G141C U145A
A12G A26G A37C G46A G59U A89U C93A
G11C C93A C95U A115U G133C
G11C G50U C96G A121G G140C
G11U A37G G71A C87G G92C C131A
A12C A20U C79U G84U
A12C C57G C75G G94A U101A C105A G143C
A12G C14U A19G A21U A28G G65C G84C G124U G143C U145C
A12G A24U C36G U78G U102G
A12G A21G G83C A107G G112U G143U
G11U C54G C87U
G11C C38U C85G U135C
A12C C18U G65U G84A A120U C125U
G11U A47C G50U C57G A64U C76G
A12C G46C A47G U55A G84C A113U
A12C C51U C54G G74U G84A G152A
A12C U44A C95A
G11U U15C C35U U82G C93G G126C
A12C U15A C43U G50C G59C A60C G62C C93A A107U G124U U127G U145C U148A
G11U A73U G92U C114A
G11U A60U U77A
A12C C35U G68A U82A C93A
G11U A28U A91U G100U U144C
A12C A17G A24C G74A G141U
A12C A21C G34A C69U C76U C85A C108U G112A U139A G143C U145G
G11U A73U G81A G83C G86U G126C G136C
A12C G68A G92U A113U A138G U144C
G11C A26U U53G C87G C99A A138U U148A
A12G A28C A30C A39U C51U C85G G124C
A12G A21G A37U C54G U77A A91C C93A
G11C A17C G50C A60U C76G G83C C125A
G11C A23U G48U C57U C93G
A12G A49G U56A U61A G88A G136C U151G
A12C G42U
A12C A17U A40U C57G C95G C103U G133C G141C
A12C C14A A23U U55A A73G C85A G126U U148G
A12G A24C A39C G50A A122U U144A U145A
G11C A52G C116U U135A G140U
G11U A29G U53G G65C A66G
A12G A39U A47U U53A C93A
A12G A22U G50C G80A U135G A150G
G11U G88A
A12C A23U U53G C54A U90G U146C
A12C C27A A49G C75U C125G C129A A138G C149G
G11U A21C A24C A66C G68A C96U
G11C C108G C114G
G11U A40G U45G G71U G83C U127C U134A A137G
G11C A20U A40U U82G G83A C93A C108A
A12C A23G G34A U56G C87A C95G C99A G136U
A12C C69A U90A G124C A138U U148A
A12C A22U A23G A40C A52U A60G A91C C96A C99A C105U C123G U135A
A12C U44A U56G G83U A89U C95A A98C C103G A107G
A12C A52C U53A C57A G58U G83U C118U U151G
G11C G74A C76U C93G A113G U145A
G11U A19C G68A G74A C87A C149G
A12C G86A A113C
G11C A41C G42A C76G U82C G86C C95U C125U
G11C A41C C95U C99G C114A A142G
A12C A40G A41U A52C C54U A66G C95U
A12C C79U C85U U127C G141U
G11U C79G G83U C96U A115U C129A U144G
G11U A28C C54G C87U C118G
A12C A20U A39U C54U U55A C99U
A12G A39C G84A A138C G143U U148C
A12G A17G A19G C32G C51A C87A A138C
G11C A19G A52G G68C A97G C132A U134C U144A
G11U A22C U45G A47C A49G C51U C54U G83A C85G
G11U A21C A37U A66G C95A C114G C116G
G11U A21C A52U C69U C75G C93G A106U G133C
G11C U15C C79A C96A
G11U C14U A41C A47G C51G C72A G74C C95U U101G A107C
G11U U13G A22U A24G A64G A107U G143A U145G
G11U A52C G58A C116G C125G A137C
G11C A39G G65C C85G
G11U U31A G70A C85U
G11U G48U G68C C93U A97U C99A
G11U G68U C85G U90A A121U
G11C A49C C75G C85G
A12C A28C A39U C57A G81A C85A
A12G A47C A66G G81C C85U A110U
A12G A49C G68A C131A G141A U146C U148A
G11U C51G G65A G68U G84A G124A A138G
A12G A37C C75A C103G
A12G A24U A26U U31G U55G C95G C116U
A12G A30U A37C C69G C93A C99A G128A U144A C149U U151G
G11U A60G C87A G140C G141C A142C
A12C C76A A91U
A12C A52G A64U A120U A150U
A12G A29G U55A C85U C96U C105U
G11U A16U C36A G58U G92U C93U
A12C A16G A39U A91C G141C U148G
A12C A49C A142G
A12C C18G A20U C43U G71U C72U A91G
G11U A29U A37U C95U C103G
G11C A17C A26U C87A C125G
G11U A20G A24U G50A C125G G136U
G11C A22U A30G A37C A91G C93A A98C C118G
G11C A49C U53G G141A
A12G A40G C54U G59C A60C G94U C96U C99U A142U
G11C C32U U45G U55A U90C U102A
G11U C36A G84A U104G U134A
A12C A39U A64C C72U A110U G117U

Polymerase ribozyme fitness (log ratio), -3.75:
A12G C14A C57A C85G

Polymerase ribozyme fitness (log ratio), -2.73:
A12C A113G

Polymerase ribozyme fitness (log ratio), -2.66:
A12G A73U C96A U109A C116U

Polymerase ribozyme fitness (log ratio), -2.61:
G11U A22C C87U

Polymerase ribozyme fitness (log ratio), -2.2:
G11C G59A A73G U82G

Polymerase ribozyme fitness (log ratio), -1.92:
G11C C105U C118G

Polymerase ribozyme fitness (log ratio), -1.69:
A12C A16G A41C A121U

Polymerase ribozyme fitness (log ratio), -1.32:
A12C A142C

Polymerase ribozyme fitness (log ratio), -1.43:
A12C G58C G94C

Polymerase ribozyme fitness (log ratio), -4.14:
G11U A37U C87A

Polymerase ribozyme fitness (log ratio), -2.11:
G11C C35U

Polymerase ribozyme fitness (log ratio), -1.81:
G11U G94A A98C

Polymerase ribozyme fitness (log ratio), -2.58:
G11C C38A G59A C125G

Polymerase ribozyme fitness (log ratio), -3.49:
G11C C54U C85U A115G

Polymerase ribozyme fitness (log ratio), -3.88:
G11U C93G

Polymerase ribozyme fitness (log ratio), -4.09:
A12G A41U C85U U101G C105A G140U G152U

Polymerase ribozyme fitness (log ratio), -3.26:
G11C G46A G58A G83A

Polymerase ribozyme fitness (log ratio), -2.26:
A12C A16U U145G

Polymerase ribozyme fitness (log ratio), -4.16:
G11U A28U C43U C87A C99G G126A

Polymerase ribozyme fitness (log ratio), -2.88:
G11U C93U A115G

Polymerase ribozyme fitness (log ratio), -1.97:
A12C C87U A115C

Polymerase ribozyme fitness (log ratio), -4.19:
A12C A52G G68U A98U

Polymerase ribozyme fitness (log ratio), -3.7:
G11C A40C G84A A97U

Polymerase ribozyme fitness (log ratio), -0.207:
A12C C54U
